# Test results taken from a collection of fitness landscapes (doi:10.1016/j.celrep.2020.107928).
# Whole data set: some 81,000 sequences, median “one-hybrid fitness for binding parS DNA” near -0.17, cut for the highest 2% near 0.51. The list shows a part of the results.
# B1: Caulobacter ParB omega fusion; a variant is named by its letters at X, in order, B8GW30 (parent)
# chain: MESVVVGEPGMSEGRRGLGRGLSALLGEVDAAPAQAPGEQLGGSREAPIEILQRNPDQPRRTFREEDLEDLSNSIREKGVLQPILVRPSPDTAGEYQIVAGERAWRAAQRAGLKTVPIMVRELDDLAVLEIGIIENVQRADLNVLEEALSYKVLMEKFERTQENIAQTIGKSXSHVANXMRLLXLPDEVQSYLVSGELTAXHARAIAAAADPVALAKQIIEGGLSVRETEALARKAPNLSAGKSKGGRPPRVKDTDTQALESDLSSVLGLDVSIDHRGSTGTLTITYATLEQLDDLCNRLTRGI
# Variants of: B1
# Test: one-hybrid fitness for binding parS DNA (scaled: cognate 1, non-cognate 0); higher = stronger binding
# Conditions: with parS DNA site
# Summary of the method: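 Values were rescaled so that cognate is 1 and non-cognate is 0. Each is a fitness, the log change in a variant's read ratio to wild type from Illumina reads of plasmids before and after selection, with three replicate libraries pooled and variants under 10 reads dropped. Selection of the Caulobacter ParB libraries, four specificity codons randomised, used E. coli USO with a HIS3 reporter, site 19 bp from the promoter, on M9-minus-histidine with 0.1 mM IPTG and 5 mM 3-AT for 48 hours at 37°C.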
row,Variant,one-hybrid fitness for binding parS DNA
1,HRPM,≤ 0.2
2,IFHR,≤ 0.2
3,DNPG,≤ 0.2
4,PNEG,≤ 0.2
5,KQNT,≤ 0.2
6,HGDG,≤ 0.2
7,ESRQ,≤ 0.2
8,PIYC,≤ 0.2
9,LTYR,≤ 0.2
10,RAYC,0.99
11,YRNY,≤ 0.2
12,TATL,≤ 0.2
13,PLTC,≤ 0.2
14,VQWS,≤ 0.2
15,ARME,≤ 0.2
16,GPTS,≤ 0.2
17,ELQG,≤ 0.2
18,WLKQ,≤ 0.2
19,SATT,≤ 0.2
20,VCNL,≤ 0.2
21,CYCL,≤ 0.2
22,RKTR,≤ 0.2
23,DFNS,≤ 0.2
24,EVRI,≤ 0.2
25,TDAD,≤ 0.2
26,LRQT,≤ 0.2

row,Variant,one-hybrid fitness for binding parS DNA
1,SRFH,≤ 0.2
2,MTPK,≤ 0.2
3,SDSH,≤ 0.2
4,HRPG,≤ 0.2
5,RYSY,0.425
6,KYNT,≤ 0.2
7,PFLA,≤ 0.2
8,GAIL,≤ 0.2
9,TLNC,≤ 0.2
10,HTHM,≤ 0.2
11,PDHG,≤ 0.2
12,EYCR,≤ 0.2
13,RFYK,≤ 0.2
14,GTVS,≤ 0.2
15,APYI,≤ 0.2
16,VMNV,≤ 0.2
17,KPPY,≤ 0.2
18,ITHL,≤ 0.2
19,RTVM,0.315
20,NWST,≤ 0.2
21,ENYW,≤ 0.2
22,QHNI,≤ 0.2
23,QRFG,≤ 0.2
24,DKWG,≤ 0.2
25,QRVH,≤ 0.2
26,WHFT,≤ 0.2

row,Variant,one-hybrid fitness for binding parS DNA
1,SQVC,≤ 0.2
2,LCEC,≤ 0.2
3,WRTN,≤ 0.2
4,PNYV,≤ 0.2
5,CILA,≤ 0.2
6,RAKA,0.737
7,SDTF,≤ 0.2
8,PPLL,≤ 0.2
9,DTRT,≤ 0.2
10,FCNT,≤ 0.2
11,CWSA,≤ 0.2
12,RYEK,≤ 0.2
13,PERW,≤ 0.2
14,FEDS,≤ 0.2
15,LMPS,≤ 0.2
16,KIYA,0.271
17,PKSH,0.3
18,SENT,≤ 0.2
19,SSPQ,≤ 0.2
20,QCIS,≤ 0.2
21,AMDA,≤ 0.2
22,YGAC,≤ 0.2
23,SVIA,≤ 0.2
24,HQYC,≤ 0.2
25,ESLT,≤ 0.2
26,PTMM,≤ 0.2

row,Variant,one-hybrid fitness for binding parS DNA
1,VTFK,≤ 0.2
2,DRMG,≤ 0.2
3,KNGT,≤ 0.2
4,IFTM,≤ 0.2
5,RKIF,≤ 0.2
6,FFWR,≤ 0.2
7,PSTM,≤ 0.2
8,EQHT,≤ 0.2
9,NFNR,≤ 0.2
10,YVSG,≤ 0.2
11,DSRD,≤ 0.2
12,HGMS,≤ 0.2
13,RTCE,≤ 0.2
14,FLNM,≤ 0.2
15,LHNT,≤ 0.2
16,GRVL,≤ 0.2
17,HCGG,≤ 0.2
18,GANM,≤ 0.2
19,TAAM,≤ 0.2
20,TIMK,≤ 0.2
21,RLPK,≤ 0.2
22,INMR,≤ 0.2
23,QIFK,≤ 0.2
24,DKVI,≤ 0.2
25,DVMC,≤ 0.2
26,ALPN,≤ 0.2

row,Variant,one-hybrid fitness for binding parS DNA
1,WHCC,≤ 0.2
2,SRWI,≤ 0.2
3,VHDG,≤ 0.2
4,NWTS,≤ 0.2
5,NLPI,≤ 0.2
6,SPEF,≤ 0.2
7,WCKL,≤ 0.2
8,YDAG,≤ 0.2
9,PHRM,≤ 0.2
10,QLRA,≤ 0.2
11,TFRG,≤ 0.2
12,SWRF,≤ 0.2
13,HLCT,≤ 0.2
14,TQRW,≤ 0.2
15,LDSC,≤ 0.2
16,NAIF,≤ 0.2
17,WPFI,≤ 0.2
18,QPSH,≤ 0.2
19,WSRT,≤ 0.2
20,EGNG,≤ 0.2
21,HSPR,≤ 0.2
22,YIYS,≤ 0.2
23,AFVQ,≤ 0.2
24,SFPW,≤ 0.2
25,SENG,≤ 0.2
26,HDMV,≤ 0.2

row,Variant,one-hybrid fitness for binding parS DNA
1,CCSC,≤ 0.2
2,NSSI,≤ 0.2
3,QKAN,≤ 0.2
4,CQKM,≤ 0.2
5,HIPH,≤ 0.2
6,RTHG,1.01
7,QHLL,≤ 0.2
8,DTKS,≤ 0.2
9,AYMA,≤ 0.2
10,PFES,≤ 0.2
11,GVIG,≤ 0.2
12,RGSL,≤ 0.2
13,AMMS,≤ 0.2
14,LSLM,≤ 0.2
15,TLFG,≤ 0.2
16,NHLV,≤ 0.2
17,DLIL,≤ 0.2
18,CVGS,≤ 0.2
19,VQPA,≤ 0.2
20,YLFS,≤ 0.2
21,VFLD,≤ 0.2
22,YMAV,≤ 0.2
23,NCID,≤ 0.2
